In the supplement of paper PMC3724861:
Some of the results follow.

system: T1, Caupolican (Caup) homeodomain DNA-binding domain; assay: PBM E-score (8-mer, recovered from the published 9-mer minima) (E-score (dimensionless, -0.5 to 0.5)); Drosophila protein; higher = stronger relative binding preference, active = 0.31 or more
T1 sequence: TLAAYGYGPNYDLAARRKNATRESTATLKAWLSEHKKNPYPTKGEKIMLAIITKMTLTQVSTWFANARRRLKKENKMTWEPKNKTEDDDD
Description: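 Protein binding microarray (PBM): in vitro transcribed/translated Caupolican (Caup) homeodomain DNA-binding domain (residues 214-303) applied at 100 nM to a universal 8-mer PBM array (Agilent AMADID 015681). The 8-mer enrichment score (E-score, range -0.5 to 0.5) was computed, and each 9-mer score is the minimum E-score of its two constituent 8-mers. The E-score is the same for a 9-mer and its reverse complement; 0.31 is the stated binding threshold.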

Sequence	PBM E-score
AGGGATTC	inactive: -0.0888
CAGCATCG	inactive: -0.0915
CGCTGGCA	inactive: -0.112
GTTTCCGA	inactive: 0.031
CCACTATA	inactive: 0.0838
CCCATTCG	inactive: -0.136
GCCGGAGC	inactive: -0.274
GCAGGACC	inactive: -0.165
AAGCCCTG	inactive: -0.079
AATTTTGC	inactive: 0.0823
AATATGCG	inactive: 0.0313
GAAATGAC	inactive: 0.123
AGAATGCC	inactive: -0.0772
GATTTGTA	inactive: 0.255
GTTGTTGA	active: 0.321
CGCTTTAG	inactive: -0.103
AGTGAACA	inactive: 0.284
TGGTCGAA	inactive: -0.024
TAGAAATA	inactive: 0.1
AGTTAGCC	inactive: -0.147
CAAACCCG	inactive: -0.118
GATCTATA	inactive: 0.119
ACCTGTCC	inactive: 0.0919
CTGGCCAC	inactive: -0.142

Sequence	PBM E-score
ATGTAAGG	inactive: 0.303
GACTAATA	inactive: 0.175
CGCTTCTC	inactive: -0.18
CCAGAGCC	inactive: -0.187
CAGCGTCG	inactive: -0.141
ACGGCCGA	inactive: -0.108
GGAACTGA	inactive: -0.043
ACGGATAG	inactive: -0.0384
AACCCTCG	inactive: -0.0473
CCTCGCAA	inactive: -0.094
ACATCTAA	inactive: 0.238
GCGCGCCA	inactive: -0.156
AGGGGCGA	inactive: -0.186
TTATTCAA	inactive: 0.163
GTGGTTTA	inactive: 0.0307
CAGAGCGA	inactive: -0.0616
AGCAGTAA	inactive: 0.0927
GCATACGC	inactive: -0.0725
AGGGTCCA	inactive: -0.233
AGTCAAAT	inactive: 0.0885
ATGATAGG	inactive: -0.0525
ACTCTTGC	inactive: 0.0129
AGAGTAGG	inactive: 0.00327
ATACCCGA	inactive: 0.00121

Sequence	PBM E-score
GGGGAACA	inactive: 0.0776
CGCTTCAC	inactive: -0.212
CTCCCGCC	inactive: -0.217
ACGTTCTC	inactive: 0.0157
AGCAGAGG	inactive: -0.177
ATCTGAGG	inactive: -0.017
CGACCCAA	inactive: -0.0571
GAATTGTC	inactive: 0.0615
ATGCTATC	inactive: -0.012
CTAAGTGA	inactive: 0.0437
CAGTTACG	inactive: -0.0164
TCCAGAAA	inactive: 0.0344
GGTGAGAA	inactive: -0.068
CAAGGCGA	inactive: -0.0101
CACTTGCA	inactive: 0.113
ACTCGATC	inactive: -0.0238
ACTGTGAA	inactive: 0.0229
ACGGTCAG	inactive: -0.0409
ACTCTATG	inactive: -0.0241
TGAGGCAA	inactive: -0.0847
CCCGTAAC	inactive: 0.021
AGGAAACG	inactive: -0.0134
TCCGCGGA	≥ -0.111
CACCCTTC	inactive: -0.0703

Sequence	PBM E-score
TTACATAA	active: 0.339
CAACAAAA	inactive: 0.232
GACTTAGA	inactive: -0.0595
ACATTGAG	inactive: 0.134
CTCCGGAG	inactive: -0.203
ATACAAGG	inactive: 0.283
GCATCTCA	inactive: 0.0106
CAAACAAG	inactive: 0.2
CACAACTC	inactive: 0.0177
AAACGCCC	inactive: -0.126
CTTTATCA	inactive: 0.0949
GCAGCGCA	inactive: -0.191
AGTTTACC	inactive: 0.0187
ACAGCATA	inactive: 0.154
GACGACAC	inactive: 0.191
AACAGCCG	inactive: 0.00479
CAGATGAA	≥ 0.139
ACCGGCAA	inactive: -0.0801
GCCGACGC	inactive: -0.22
ACTCTCTA	inactive: 0.0135
AATGTCAG	inactive: 0.197
CAAAGATC	inactive: -0.00782
ACTCTCCT	inactive: -0.0347
AGCCAGCG	inactive: -0.15

Sequence	PBM E-score
CGGAGTGA	inactive: -0.0315
AGATTCAG	inactive: 0.00643
CAAAGGGG	inactive: -0.109
CCTAGGCC	inactive: -0.185
AGGAACAG	inactive: 0.0859
CTACAGAC	inactive: 0.0295
ATTCTAGG	≥ 0.108
GCAGCGAA	inactive: -0.0191
CATTGGCG	inactive: -0.0798
ATAGTGAC	inactive: 0.0921
CACCCAGA	inactive: -0.00339
CCTTGTTC	inactive: 0.24
ATCCTAAT	inactive: 0.0673
ATCATCTA	inactive: 0.00426
ACCCAGCA	inactive: -0.0769
CAAGAACG	inactive: -0.00317
ATGGTTGC	inactive: -0.0634
ATGACGTA	≥ 0.15
ATCAAATA	inactive: 0.125
ATGTTTTC	active: 0.33
GATGTGCA	inactive: 0.102
CGAGACAA	inactive: 0.0948
AGCTAATG	inactive: 0.0599
CCATTCAA	inactive: 0.0195

Sequence	PBM E-score
ATCGTAAT	≥ 0.193
ATACCTGC	inactive: 0.053
CGCTACAC	inactive: 0.104
ACTTAACA	inactive: 0.22
ACAAAGCA	inactive: 0.17
AGCTCACG	inactive: -0.0814
GAGTGAAC	inactive: -0.00908
TATCGCAA	inactive: 0.0789
CAGAAGCC	inactive: -0.192
CGCCGCGC	inactive: -0.237
AGGGACGG	inactive: -0.28
CACTATAC	inactive: 0.121
GGAGACAC	inactive: 0.0998
AATGTGTA	active: 0.311
CACCAACG	inactive: 0.0127
AAAGCTAC	inactive: -0.00022
CTCTTACC	inactive: 0.0184
GCATTCGA	inactive: 0.0105
CCCCCGCG	inactive: -0.26
CAGCAAAA	inactive: 0.0451
TCGTCTCA	≥ -0.009
GGGTAAAA	inactive: 0.0208
CCGTAAAA	inactive: -0.0169
